Data on 22 molecules can be found in publication PMC12136788.

Some of the results follow.

The labels stand for the following.
T1: UNK ZnF1-3 (human, UniProt Q9C0B0 31-174)
T1 sequence: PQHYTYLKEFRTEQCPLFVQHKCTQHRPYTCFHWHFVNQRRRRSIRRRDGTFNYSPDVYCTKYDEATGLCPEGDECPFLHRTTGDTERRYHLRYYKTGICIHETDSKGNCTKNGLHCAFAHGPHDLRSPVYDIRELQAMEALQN

B1: chr1:82725849:82725850:+_ENSMUSG00000026150_ENSMUST00000078332|mus_hu|motif|central (ssRNA)
RNA: GGGAGUUCUACAGUCCGACGAUCGGACCCUCAUUCGCUGACUAAUGCCUUCAGUAUAUUCCAUUUCGUACUGAAUUCGACGGAUUUCUGCCAUCUCAGCAGCAGUGGGAGAAGGAAAUGCUGCCCUGCUCACCAAAUGUGUAACAACAGAGGAUUGAGCAUCA
B2: chr17:62496873:62496874:-_ENSG00000108654_ENST00000581693|hu_hu|FALSE|FALSE (ssRNA)
RNA: GGGAGUUCUACAGUCCGACGAUCUCCAAUUCGAUGAAUAUAAUCCUCUGAGGAGUUAGGGUAGUCAUAAUUGAUGACAAAUUUCACAUCUUCCACAUCUAGCCCUCUGGAGGCCACAUCUGUAGCAAUCAGAAUAGGAGCUUUCAACAGAGGAUUGAGCAUCA
B3: 35504872_35504992_1019_CDS_ENSMUSG00000041408_ENSMUST00000048263|mouse|control|control (ssRNA)
RNA: GGGAGUUCUACAGUCCGACGAUCUUCAUCAGCUUUAUAUUCAGAAGCCACUGCGGUUUCUGCAUUGGGUUUCUUAGUACUAUCUUCAGCAUUUUUGUGAAAGUGGUGACUAUUUUUUUCAUGUUCUUCACUAAAAUUCUCCACCAACAGAGGAUUGAGCAUCA
B4: chr21:34901235:34901236:-_ENSG00000159131_ENST00000381815|hu_hu|FALSE|FALSE (ssRNA)
RNA: GGGAGUUCUACAGUCCGACGAUCCAUGCCAUCCACUGUCCUCUGAAGAACAGUAUCUUUAAUUUUUAGUAAUAGAUCAUUAGAAACCUGAGGGGCUGGACAAUAGGCUCCCAUUCCCCCUGUGUUAGGGCCACCAUCUCCCUCCAACAGAGGAUUGAGCAUCA
B5: 124028550_124028670_1610_ncRNA_ENSMUSG00000049550_ENSMUST00000125340|mouse|control|control (ssRNA)
RNA: GGGAGUUCUACAGUCCGACGAUCGAUUCUUUUAAAAAUAUAUACACAUAUAAUAUAUAGACGUUGAAAUUAUGUAAAACCAGUAAAGAAAACACCACUGUCGGUCCAUGGGUGCAGCAUAUAGAUUAGAAAAUGUCCCCACAGCAACAGAGGAUUGAGCAUCA
B6: chr4:95690885:95690886:+_ENSMUSG00000028572_ENSMUST00000156910|mus_mus|mus_mus_mus_hu_False|8_38 (ssRNA)
RNA: GGGAGUUCUACAGUCCGACGAUCUUUAGAAAAUGUUAAAUACCAUGCUAAAAUAUUUUCAAAGGCUUAUUUUAUUUUACCAGAAGUCACAGGCAAGCAGACACCAUAAGAAUAUAUGAAAAUGAAACAACAGUGUAUAACUGUCAACAGAGGAUUGAGCAUCA
B7: chr16:17261293:17261294:+_ENSMUSG00000050240_ENSMUST00000090190|mus_mus|FALSE|FALSE (ssRNA)
RNA: GGGAGUUCUACAGUCCGACGAUCGACAUGCUCAGUGAGGGGCUCUGCUCCUAGUCCCUGAUUUUCUGCAGAUGAGGGUACCUACAGCCUGGGAGGCCACACAGACCUUGUGUCCUAGGCCUUAAGUGCUGGUAGGUGGGUGGGCAACAGAGGAUUGAGCAUCA
B8: chr19:27315782:27315783:+_ENSMUSG00000024924_ENSMUST00000167487|mus_mus|FALSE|FALSE (ssRNA)
RNA: GGGAGUUCUACAGUCCGACGAUCAGCCGCAUCAGUCCAGUAGAUGGUCUUGUACACCCAAUCAACAGCAAUGGCUGCAGGAUUAUAGACAUUGUCGAUCAUUUUAAAAUGUCUACCAACCUUGUCAUCAAUUGAGGCACUGAACAACAGAGGAUUGAGCAUCA
B9: 87906242_87906362_2047_CDS_ENSMUSG00000022019_ENSMUST00000168275|mouse|control|control (ssRNA)
RNA: GGGAGUUCUACAGUCCGACGAUCUUUUGCAUACUCCACAGGAAUAGAUGAUUCUAUCACCUUUUCAGGCUUAAUUGGCCCAGACCUUCUUUUGGGCCCACUAUUAUAAAAUAUUUUAUCAUCGUAGGGCACAGCUGUGACAGGCAACAGAGGAUUGAGCAUCA
B10: 48955391_48955511_1705_3pUTR_ENSG00000139687_ENST00000267163|human|control|control (ssRNA)
RNA: GGGAGUUCUACAGUCCGACGAUCUCAAGUUGCCUUCUGCUUUGAUAAAACUUUCGAUCACUUUGUAAAAAUCAAAGGCUUUUAAAUUAAGCACAUUCAGAAUCCAUGGGAAAGACAAAUCUGUUCCAGAAUCAAGAUUCUGAGCAACAGAGGAUUGAGCAUCA
B11: chr7:35913284:35913285:+_ENSG00000122545_ENST00000399035|perfect_dup|motif|central (ssRNA)
RNA: GGGAGUUCUACAGUCCGACGAUCAUCAGGCAUCUGACGUCUGUUCACUCGUGAUUCUGCAUUUAGGUAGUCCUCAAAUUUACGGUCAAUGUAGUCGAUAACAGGCUGCCAGCAAUUACUAUUAUCCACUGCAUCUCCAAAUCCCAACAGAGGAUUGAGCAUCA
B12: chr2:126738436:126738437:-_ENSMUSG00000027366_ENSMUST00000028844|mus_hu|FALSE|FALSE (ssRNA)
RNA: GGGAGUUCUACAGUCCGACGAUCAGGCAUGAGGCACACACUCAUUACUGAGAAAUAGAUCAGUUUUGGUACUCUGAUGACUACUGGCAACUUUUCAUUAUUUCCAAAAGGUCCAGCUGCGAGUUCAACCAUGAUACUCUCACCCAACAGAGGAUUGAGCAUCA
B13: chr10:75830775:75830776:+_ENSG00000035403_ENST00000372755|perfect_dup|FALSE|FALSE (ssRNA)
RNA: GGGAGUUCUACAGUCCGACGAUCCAUAGUCUCCACCACCUCUGCCACUGUAAGAUAUUCCAAAAUUCCUUUGCAAACUCUAAUAAUUUUACGGACCUCAGCCUCAUCGAAGGUAAGGAGCAGGUCUGAUGUUCCAGAGAGGAUCAACAGAGGAUUGAGCAUCA
B14: chr16:67133199:67133200:+_ENSG00000067955_ENST00000412916|hu_hu|motif|central (ssRNA)
RNA: GGGAGUUCUACAGUCCGACGAUCAUGCUACUAAGUUUUUAGCCUGUAAAUAAUGCAAACAACAUCAGCAGUUUUAAAAUGCGGUAGACUAUAAAAACACAAAAGGAAAUGGGGCAAACAAAACAAAAAAUAAGAAUGCUCAUCCAACAGAGGAUUGAGCAUCA
B15: 47489978_47490098_5123_3pUTR_ENSG00000149187_ENST00000395290|human|control|control (ssRNA)
RNA: GGGAGUUCUACAGUCCGACGAUCUUACUUCAAAGUUGUCUUUAAAACUAAGCACACAGAGAAACAAAGCCUAGAAACGGACUGGCUGUGUGUUCACAGAAAUACAAACACCACGCGGUAUGUGCUAGUAGGGCUGCUCUGAAGCAACAGAGGAUUGAGCAUCA
B16: chr3:94683992:94683993:+_ENSMUSG00000038902_ENSMUST00000107270|mus_mus|FALSE|FALSE (ssRNA)
RNA: GGGAGUUCUACAGUCCGACGAUCGUUAACGUUGCCAUCGGGACCUGGCAGAACACUAGCCACAAGGAAGGACCGCUGAACUAGCUCUGGGGAGUCCCCAAUGACACCCAGCACCUCUCCCAGCCAGACCAACACCAGCUGAAGCAACAGAGGAUUGAGCAUCA
B17: chr1:94914716:94914717:-_ENSMUSG00000014602_ENSMUST00000171796|mus_mus|FALSE|FALSE (ssRNA)
RNA: GGGAGUUCUACAGUCCGACGAUCAAACAGAACACAGUCUUAUAGUUAAUGUCUCAGAGGACUGUUUCAACGCCACUAACUAAUGUAUAUUAAUUAUAAGUCUGUCUAUGCUUAAAAAAAUAUUAGAACAGCGGCAAUACCCUGCAACAGAGGAUUGAGCAUCA
B18: chr9:72466633:72466634:+_ENSMUSG00000037674_ENSMUST00000093820|mus_mus|motif|central (ssRNA)
RNA: GGGAGUUCUACAGUCCGACGAUCCUGAUAUGACUGUCCAGGUACAGCAAAAGCAUGAGGUUUCCUGAAACGAUCUUCGGCGGGUUCCUGAUAGCUUGGGAGAAUGCCAUGACCAGAAACCGAUGAAUUACCAACCCCACCAUACAACAGAGGAUUGAGCAUCA
B19: 26785022_26785142_3734_CDS_ENSMUSG00000024921_ENSMUST00000025862|mouse|control|control (ssRNA)
RNA: GGGAGUUCUACAGUCCGACGAUCCAGGAAGGCCCUCCGCUCGUGGCUGGAUGACUUCUGGUCAAACAUGCCUGCUUGGAUAACCUUCUGAUCCACGUUCAGCUUGUACUUGGCAGCCGCGAGAAUCUUUUCCUCCACACUGUUCAACAGAGGAUUGAGCAUCA
B20: chr7:151048522:151048523:+_ENSG00000013374_ENST00000566856|hu_mus|hu_hu_hu_mus_True|28_28 (ssRNA)
RNA: GGGAGUUCUACAGUCCGACGAUCCUGUUUCUUAUUUAUUACGAUCUUGAUGUAAUUUUCUUGAAAUCCGAAAGUUUCAGCUAUUUGACACCUCAGGUCUCUACCAGUGAUGUGCAAGCGGGUCUCCAACAAGCUUUUCUUAUCCAACAGAGGAUUGAGCAUCA
B21: chr18:48606039:48606040:+_ENSG00000141646_ENST00000342988|hu_mus|FALSE|FALSE (ssRNA)
RNA: GGGAGUUCUACAGUCCGACGAUCAGUAUACAUGUGUGUCUGUGGUACAGUCAAUGUGUCUUAACUCCUCCACUUCAAUCUCUACAAAGUCACCGCCAAGUGAUCAAGGAUGGCAAACACAGGGCUUAUAACCAAAAGGUAUAACAACAGAGGAUUGAGCAUCA
B22: chr4:39779992:39779993:+_ENSG00000078140_ENST00000510719|hu_mus|motif|central (ssRNA)
RNA: GGGAGUUCUACAGUCCGACGAUCACUCAGAAGCAGUUCUGUUGCAGUCUCUACAUCCCAUGAUUUUGAAGACAAGGCCACGGUUACUGCGUUCCUAUCAAAACCCAUAGCACAGAGGUUUUCUAUUUUUUUGGUGUAUUCUGGCAACAGAGGAUUGAGCAUCA

This assay concerns the target T1, UNK ZnF1-3. Put plainly: nsRBNS (natural sequence RNA bind-n-seq); RBNS binding buffer (assumed for nsRBNS): 25 mM Tris pH 7.5, 150 mM KCl, 3 mM MgCl2, 0.01% Triton X-100, 500 ug/ml BSA, 20 U/ml SUPERase-In, 4 C; UNK is unkempt and MSI1 is Musashi-1; names of the RNAs are library labels; protein concentration not given here; high values mean tight binding.
For the molecule B1, the binding signal stood at 0.905 enrichment R. As for B2, the figure is 0.955 enrichment R; as for B3, 0.498 enrichment R; as for B4, 1.54 enrichment R. Next, B5: 2.92 enrichment R; B6: 1.89 enrichment R. Next, B7: 0.639 enrichment R; B8: 0.459 enrichment R; B9: 0.927 enrichment R. Turning to B10, the binding signal came to 0.99 enrichment R. The molecule B11 had a binding signal of 1.1 enrichment R. B12: the binding signal worked out at 1.03 enrichment R. For B13, the binding signal is 1.38 enrichment R. As for B14, the figure is 2.09 enrichment R. As for B15, the figure is 1.14 enrichment R; as for B16, 1.06 enrichment R; as for B17, 1.07 enrichment R. Next, B18: 1.21 enrichment R; B19: 0.568 enrichment R. In turn, B20 came in with a binding signal of 0.629 enrichment R. Next, B21: 1.49 enrichment R; B22: 0.657 enrichment R.
